Experimental data taken from PubChem BioAssay AID651791 (National Center for Advancing Translational Sciences (NCATS), 2012).
This list was built around the results that the source calls inconclusive (neither active nor inactive); the mix of calls is not that of the screen. Where the call is inconclusive, the potency comes from a doubtful curve fit. The source made the active and inactive calls. The call rests on the fitted dose curve; in most records, active means well fitted inhibition curve with a large enough effect; inconclusive means small, poorly fitted or top-dose-only effect; inactive means no such curve, though single readings can be large or run the other way.

Assay: InCell qHTS Assay for Inhibitors of the mTORC1 Signaling Pathway in MEF (Tsc2-/-, p53-/-) Cells: Hit Validation;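 further: phospho-S6 Ser235/236 signal normalized to propidium iodide cell count per well; nearly all actives have a fitted effect of over 75% in size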
Conditions: phospho-rpS6 immunofluorescence, 24 h
Potency means the concentration at half of the fitted maximal effect; tags describe the fitted curve by direction and shape.

Potency, inconclusive:
CCCN1C(=O)C(O)(CC(=O)c2ccc(CC)cc2)c2cc(Br)ccc21 (stereo unspecified) 5.21 µM [inhibitor, single point]
CCN1CCOC(=O)C1CC(=O)Nc1ccc(Br)cc1 (stereo unspecified) 26.1 µM [inhibitor, single point]
CCOc1ccc(-n2nc3ccc(NC(=O)c4ccc(-c5cccc(Cl)c5)o4)cc3n2)cc1 18.5 µM [inhibitor, single point]
CC1CCCN(CCCNC(=O)c2cc3c(Cl)nc4ccccc4c3s2)C1 (stereo unspecified) 14.7 µM [inhibitor, single point]
CCOc1ccc(C2C(C(=O)Nc3ccc(Cl)cc3)=C(C)Nc3nc(C(F)(F)F)nn32)cc1 (stereo unspecified) 16.5 µM [inhibitor, single point]
CCc1nnc(SC(CC)C(=O)Nc2cccc(OC)c2)c2cc3oc(C)cc3n12 (stereo unspecified) 20.7 µM [inhibitor, single point]
CCN1CCOC(=O)C1CC(=O)Nc1cc(Cl)ccc1C (stereo unspecified) 23.3 µM [inhibitor, single point]

Potency, active:
CCC(C)S(=O)(=O)c1oc(-c2ccc(F)cc2)nc1S(=O)(=O)c1ccc(F)cc1 (stereo unspecified) 1.47 µM
CC(C)CCNC(=O)c1cccc(Nc2nc3ccccc3n3nnnc23)c1 4.14 µM
CCS(=O)(=O)c1ncc(Cl)c(C(=O)NCc2ccccc2)n1 10.4 µM
CCCCS(=O)(=O)c1nc(-c2ccc(Br)cc2)cc(-c2ccccc2)c1C#N 16.5 µM
